# In all, about 310,000 compounds went through this assay and about 14,000 (4.5%) showed an effect of 50% or more. Effects have a minus sign here. The list shows a part of the results.
# Molecular target: human ether-à-go-go-related gene (hERG) potassium channel (human, UniProt Q12809)
# Experiment: primary screen, population patch clamp on CHO cells stably expressing hERG
# 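Also: peak tail current of the secondary pulse compared with the same well before compound.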
# human ether-à-go-go-related gene (hERG) potassium channel, sequence (Q12809 whole entry, looked up): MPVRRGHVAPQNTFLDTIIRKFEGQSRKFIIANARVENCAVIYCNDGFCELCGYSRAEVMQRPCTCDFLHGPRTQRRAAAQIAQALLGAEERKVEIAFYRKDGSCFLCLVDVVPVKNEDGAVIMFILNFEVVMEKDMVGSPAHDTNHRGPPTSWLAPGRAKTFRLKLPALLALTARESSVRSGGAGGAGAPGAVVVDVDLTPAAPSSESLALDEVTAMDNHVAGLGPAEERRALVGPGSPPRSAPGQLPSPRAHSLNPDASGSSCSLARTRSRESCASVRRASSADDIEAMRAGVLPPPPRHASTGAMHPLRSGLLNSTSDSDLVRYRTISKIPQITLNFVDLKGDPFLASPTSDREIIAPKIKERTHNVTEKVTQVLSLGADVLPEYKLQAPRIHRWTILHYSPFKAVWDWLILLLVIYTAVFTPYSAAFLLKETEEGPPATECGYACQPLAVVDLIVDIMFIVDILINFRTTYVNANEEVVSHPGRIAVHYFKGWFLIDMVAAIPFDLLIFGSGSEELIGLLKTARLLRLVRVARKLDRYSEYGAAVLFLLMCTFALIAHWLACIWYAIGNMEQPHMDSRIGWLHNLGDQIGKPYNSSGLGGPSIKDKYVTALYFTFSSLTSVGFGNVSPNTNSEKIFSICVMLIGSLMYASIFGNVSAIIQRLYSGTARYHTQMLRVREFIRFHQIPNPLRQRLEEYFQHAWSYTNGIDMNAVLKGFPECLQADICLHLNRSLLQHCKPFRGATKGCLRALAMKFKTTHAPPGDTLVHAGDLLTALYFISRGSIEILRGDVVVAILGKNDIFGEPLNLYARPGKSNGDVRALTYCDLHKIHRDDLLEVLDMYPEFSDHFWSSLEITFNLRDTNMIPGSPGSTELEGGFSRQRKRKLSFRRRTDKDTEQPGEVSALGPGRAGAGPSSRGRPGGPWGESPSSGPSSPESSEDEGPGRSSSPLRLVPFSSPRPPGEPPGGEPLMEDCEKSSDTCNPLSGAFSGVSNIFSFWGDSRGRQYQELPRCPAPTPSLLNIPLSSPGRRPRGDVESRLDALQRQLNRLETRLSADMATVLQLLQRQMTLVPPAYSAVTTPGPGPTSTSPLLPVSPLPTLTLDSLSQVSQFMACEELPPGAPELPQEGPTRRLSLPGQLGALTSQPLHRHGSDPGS
row,SMILES,"hERG current change (%, negative = inhibition) at 10uM"
1,CC(=O)Nc1ccc(C(=O)OCc2ccc(Cl)cc2)cc1,-5.91%
2,CCn1cc(CNC(=O)/C=C/c2ccc([N+](=O)[O-])cc2)cn1,-33.6%
3,COc1ccc(C(=O)CSc2ccc(-c3ccco3)nn2)cc1,-78.1%
4,CCOC(=O)c1nn(-c2ccc(F)cc2)c(=O)c(C#N)c1C,33%
5,COc1ccc(S(=O)(=O)NC(C)C(=O)Nc2cccc(C(C)=O)c2)cc1 (stereo not drawn),0.77%
6,CC1CC(C)(C)NC(=S)N1CCCC(=O)Nc1ccc2c(c1)OCCO2 (stereo not drawn),-4.4%
7,COc1ccc(NC(=O)CN2CCc3ccccc3C2)cc1S(=O)(=O)N1CCOCC1,-15.4%
8,CCN1C(=O)[C@H]2[C@@H](c3ccc(C)cc3)N3C(=O)N(c4ccc(OC)cc4)C(=O)[C@@]3(C)[C@H]2C1=O,10%
9,CC1=NN(C(N)=S)C(=O)C1N=Nc1ccc(Cl)cc1 (stereo not drawn),1.83%
10,COC(=O)CCNC(=O)c1nn(Cc2ccccc2)c(=O)c2ccccc12,-9.37%
11,CCOc1ccc(Nc2nc(N)c3ccccc3n2)cc1.Cl,-41.8%
12,COCCn1c(SCc2cc(=O)n3cc(C)ccc3n2)nc2ccccc2c1=O,13.7%
13,O=C(N/N=C/C=C/c1ccccc1[N+](=O)[O-])c1cc(-c2ccccc2)n[nH]1,-8.06%
14,CC(CC(=O)Nc1ccc2c(c1)OCO2)c1ccccc1 (stereo not drawn),5.62%
15,Cc1cc(N2CCN(C)CC2)nc2ccc(NC(=S)NCCC(C)C)cc12,-51.2%
16,C/C(=C1/SC(=S)N(CCC(=O)O)C1=O)c1ccc(O)cc1,9.74%
17,N#Cc1cccc(NC(=O)Nc2cccs2)c1,20.2%
18,O=C(c1ccccc1)N1CCN(Cc2cccc(Oc3ccccc3)c2)CC1,-50.1%
19,CCOc1ccc(NC(=O)NC(C)c2ccc3c(c2)OCO3)cc1 (stereo not drawn),21.3%
20,CCCn1nc(C(=O)NNC(=O)CCCOc2ccc(OC)cc2)c2ccccc2c1=O,-8.53%
21,O=C(CN1C(=O)c2ccccc2C1=O)Nc1ccc(-c2nc3ccccc3o2)cc1,-6.56%
22,COc1ccc([C@H]2CC(=O)C=C(c3ccc(Cl)c(Cl)c3)C2)cc1,8.22%
23,Cc1ccc(N(CC(=O)Nc2cc(C)cc(C)c2)S(=O)(=O)c2cccc3nonc23)cc1,-6.51%
24,CCC1=Nc2cc(C(=O)NCCCOC(C)C)ccc2Sc2ccccc21,-13.3%
25,CCc1ccccc1NC(=O)CCN1C(=O)C2CC=CCC2C1=O (stereo not drawn),18.3%
26,CO[C@H]1[C@@H](OC)CC(OC2OC(CO)C(O)C(O)C2O)/C(=C\C#N)[C@@H]1O (stereo partly drawn),25.1%
27,O=C(O)C(=O)O.O=C(c1ccco1)N1CCN(Cc2cccnc2)CC1,0.76%

row,SMILES,"hERG current change (%, negative = inhibition) at 10uM"
1,O=C1c2ccccc2C(=O)N1OCCOCCOCCBr,-7.05%
2,COc1ccc(OC)c(CN2CCN(CCc3ccccc3)C(CCO)C2)c1 (stereo not drawn),-60.6%
3,COc1cccc(CNC(=O)CCNC(=O)C2CCN(S(=O)(=O)c3ccccc3)CC2)c1,-31.1%
4,Cc1ccc(OCC(=O)c2cc(C)n(CC(F)(F)F)c2C)c([N+](=O)[O-])n1,13.1%
5,COc1ccc(NC(=O)CSc2nnc3ccc(-c4ccccn4)nn23)c(OC)c1,7.47%
6,CCOC(=O)C1=C(CSc2nc3ccccc3s2)NC(=O)NC1c1cccc([N+](=O)[O-])c1 (stereo not drawn),5.64%
7,CC(C)NC(=S)NNC(=O)C12CC3CC(CC(C3)C1)C2,-8.78%
8,CC(C)N(C(=O)N1CCC(c2nc(-c3ccncc3)no2)CC1)C(C)C,-15.3%
9,CC(=O)Nc1cc(NC(C)=O)cc(-c2nc3ccccc3[nH]2)c1,3.84%
10,CCOc1ccccc1NC(=O)/C(C#N)=C/c1c(C)nn(-c2ccc(F)cc2)c1Cl,4.46%
11,COc1ccc(C(=O)NC2CCN(C(=O)Nc3ccccc3Cl)CC2)cc1,11.2%
12,COC(=O)C1=NNC2(c3ccc(C)cc3)C(=O)N(c3cccc(C)c3C)C(=O)C12 (stereo not drawn),-0.695%
13,COC(=O)[C@H](Cc1ccccc1)NC(=O)[C@@]1(C)C[C@@H]1[C@@H](NC(=O)OCc1ccccc1)c1ccccc1,-46.7%
14,COc1ccc(Nc2nnc(SC(C(=O)Nc3ccc(OC)c(Cl)c3)c3ccccc3)s2)cc1 (stereo not drawn),20.2%
15,CN(C(=S)NC1CCCCC1)C1(c2ccccc2Cl)CCCCC1=O (stereo not drawn),2.15%
16,Cn1c(=O)c2c(SCC(=O)c3ccccc3)nc(C3CC3)nc2n(C)c1=O,8.36%
17,COc1ccc(/C=C2\SC(=O)N(CC(=O)NNC(=O)c3ccccc3O)C2=O)cc1OC,-7.98%
18,CCN(CC)S(=O)(=O)c1ccc(C(=O)NCc2cccs2)cc1,-20.7%
19,Nc1cc(N)nc(SCc2cc(=O)oc3cc4c(cc23)CCC4)n1,-2.97%
20,COC(=O)COc1cccc(NC(=O)c2cccc(C)c2)c1,-0.144%
21,CCCCOc1ccc(CC(=O)NO)cc1,15.8%
22,Cc1ccc(-n2c(SCC(=O)Nc3cccc(S(=O)(=O)NC4=NCCCCC4)c3)nc3ccccc3c2=O)cc1C,3.17%
23,O=P(O)(O)Oc1ccccc1P(=O)(c1ccccc1)c1ccccc1,13.4%
24,CCN1CCN(C(c2cccs2)C(C)NC(=O)c2ccccc2F)CC1 (stereo not drawn),-4.23%
25,CCNc1nc(NC(C)C)nc(SCCOc2ccc(C)cc2)n1,-4.78%
26,CC1CCCCN1C(=O)/C=C/c1ccccc1[N+](=O)[O-] (stereo not drawn),-3.59%
27,CCn1c(SC(C)C(=O)Nc2ccc(N3CCOCC3)cc2)nnc1-c1ccco1 (stereo not drawn),-6.42%

# From publication PMC4336329 (PLoS ONE, 2015)
